# Measurements as given in PubChem BioAssay AID1508642 (National Center for Advancing Translational Sciences (NCATS), 2021).
# Among all 43,000 compounds or so, about 200 (0.47%) were called active. Inconclusive means that the source gave no clear call. Such entries were picked first, then a sample of the others. Calls follow the shape of the dose curve; as a rule, active = well fitted cell-killing curve with a large enough effect; inconclusive = small, poorly fitted or top-dose-only effect, or effect the other way; inactive = flat fitted curve, though single readings scatter. Potencies beside an inconclusive call are fits to weak or partial responses and may not hold up.
# Experiment: Cell viability qHTS assay in S16 Pmp22-F2sN cells; also: nearly all actives have a fitted effect of over 65% in size
# Conditions: S16 Pmp22-F2sN Schwann cells viability, CellTiter-Glo, 24 h; activity change, negative = cytotoxicity: at 57.5 µM (top of the series)
# How it was run: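 S16 Pmp22-F2sN Schwann cells (500-1,000/well) in phenol-red-free DMEM with 10% FBS received 23 nL compound by pin tool for 24 h at 37 °C. Viability was then read as CellTiter-Glo luminescence after 15 min at room temperature.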
# % is scaled to controls: 0 for no effect and ±100 for the full control effect; potency is read from the fitted curve at half-maximal effect; tags tell the direction and shape of the fitted curve.
Compound,Potency,"activity change, negative = cytotoxicity"
CCCCCOc1c(Cl)cc(C(=O)N(Cc2ccc(C)o2)C2CCS(=O)(=O)C2)cc1Cl (centres undefined),"inconclusive: 22.4 µM [cytotoxic, partial curve, poor fit]",
COc1ccccc1-c1nc2c(c(SCC(=O)Nc3ccc(C)c(C)c3)n1)Cc1c(CO)cnc(C)c1O2,,inactive: -25.1%
COc1ccc(C2=C(C)C(=NCCCN3CCN(c4cc(C)ccc4C)CC3)NS2(=O)=O)cc1,,inactive: 1.01%
Cc1ccc(C)c(NC(=O)Cn2cc(C(=O)c3ccco3)c3ccccc32)c1,"inconclusive: 7.08 µM [cytotoxic, full curve]",
COc1cccc(Cn2c(C)c(CNCc3ccccc3Cl)c(C(=O)O)c2C)c1,"inconclusive: 8.91 µM [rising, partial curve, poor fit]",
COC(=O)c1ccc(Cn2c(SCC(=O)NCc3ccccc3)nc3ccccc32)cc1,,inactive: -1.91%
CCN1CCOC(=O)C1CC(=O)Nc1ccc(C(C)=O)cc1 (centres undefined),,inactive: 19.9%
CC(=O)Nc1ccc(NS(=O)(=O)c2ccc3[nH]c4c(c3c2)CCCCC4)cc1,,inactive: -2.17%
Cc1ccc(-n2nc3c(N4CCC(C(=O)NCCc5ccccc5C)CC4)nnc(C)c3c2C)cc1,"inconclusive: 39.8 µM [cytotoxic, single point]",
O=S(=O)(c1ccc(-c2cnc(C3CC3)o2)cc1)N1CCN(c2cccc(Cl)c2)CC1,"inconclusive: 35.5 µM [rising, single point]",
O=C(OCc1cc(=O)n2nc(-c3cccs3)sc2n1)c1ccccc1Br,"inconclusive: 0.0158 µM [rising, single point]",
CCCCCN1C(C(=O)c2ccccc2)=C(NC(C)=O)c2ccccc2S1(=O)=O,"inconclusive: 31.6 µM [cytotoxic, single point]",
CNc1oc(-c2ccc(COc3ccc(C)cc3)o2)nc1C#N,,inactive: -3.51%
CCS(=O)(=O)c1cccc(C(=O)N2CCN(c3nc4c(C)ccc(Cl)c4s3)CC2)c1,"inconclusive: 25.1 µM [cytotoxic, single point]",
C=Cc1ccc(Cn2c(C(=O)O)c(CNCc3ccccc3)c3ccc(OC)cc32)cc1,"inconclusive: 28.2 µM [cytotoxic, single point]",
Cc1ccc2nc(-c3ccncc3)c(Nc3ccc(C(C)C)cc3)n2c1,,inactive: -13.3%
CC(=O)Nc1ccc(S(=O)(=O)NCc2cccn2Cc2cccc(C)c2)cc1,"inconclusive: 10 µM [cytotoxic, partial curve, poor fit]",
COc1ccc(N2CC(NC(=O)c3ccco3)CC2=O)cc1OC (centres undefined),,inactive: 5.68%
CCc1ccc(-n2nc(CO)c(C(=O)NCC(c3ccccc3)c3ccccc3)n2)cc1,,inactive: 1.07%
CCN(C(=O)CSc1nc2n[nH]c(C)c2c(=N)n1-c1cccc(OC)c1)c1cccc(C)c1,"inconclusive: 39.8 µM [cytotoxic, single point]",
Cc1cc(C)n(CCc2nc3c4ccccc4nc(N4CCN(c5ccc(F)cc5)CC4)n3n2)n1,"inconclusive: 39.8 µM [rising, single point]",
COc1ccc(C2Oc3nc(SC)nnc3-c3ccccc3N2C(C)=O)cc1 (centres undefined),,inactive: 0.736%

Compound,Potency,"activity change, negative = cytotoxicity"
CCOc1cc(C2c3c(oc4ccccc4c3=O)C(=O)N2c2ccccn2)ccc1O (centres undefined),"inconclusive: 0.891 µM [rising, partial curve, poor fit]",
CCC(C)NC(=O)c1sc2ncccc2c1-n1c(C)ccc1C (centres undefined),"inconclusive: 25.1 µM [cytotoxic, partial curve, poor fit]",
CN(C(=O)CSc1nc2ccc(NC(=O)COc3ccccc3)cc2s1)c1ccccc1,"inconclusive: 39.8 µM [cytotoxic, single point]",
CCOC(=O)c1c(NC(=O)c2cc(Cl)ccc2Cl)sc2c1CCCC2,,inactive: 0.636%
O=c1cc(-c2ccccc2)c2ccc3c(c2o1)CN(Cc1ccccc1)CO3,,inactive: 12.7%
CC(C)CN(CCNC(=O)c1cn(C)c2ccc(S(=O)(=O)N3CCCC3)cc2c1=O)CC(C)C,,inactive: -8.68%
CCN(CC)c1cc(C)c2cc(NC(=O)c3ccc(F)cc3Cl)ccc2n1,,inactive: -10.3%
Cn1c(=O)oc2cc(S(=O)(=O)N3CCC(C(=O)N4CCN(c5ccc(Cl)cc5)CC4)CC3)ccc21,"inconclusive: 14.1 µM [cytotoxic, partial curve]",
O=C(CCOc1ccccc1)N(Cc1cccnc1)c1nc2ccc(F)cc2s1,active: 25.1 µM,
Cc1ccccc1CNC(=O)Nc1ccc2c(c1)N(C)C(=O)c1ccccc1S2,"inconclusive: 28.2 µM [cytotoxic, single point]",
COc1ccc(C2CC(=O)N(Cc3ccccc3)c3c2c(C)nn3-c2nc(C)cc(C)n2)c(OC)c1 (centres undefined),"inconclusive: 14.1 µM [cytotoxic, partial curve]",
CCOc1ccc(-c2oc3cc(Cl)ccc3c(=O)c2O)cc1OC,,inactive: -11.5%
COc1ccc(CNc2ncnc3c2cnn3-c2ccc(C)c(C)c2)cc1,,inactive: 2.12%
CCCCSCCCNC(=O)C1CCC(CNS(=O)(=O)c2c(C)cc(C)cc2C)CC1 (centres undefined),"inconclusive: 39.8 µM [cytotoxic, partial curve, poor fit]",
COc1cccc(C(=O)NC2CC(=O)N(c3ccc4c(c3)OCCO4)C2)c1OC (centres undefined),,inactive: 13.1%
O=C(NCCCN1CCN(c2ccccc2F)CC1)c1cc2c(s1)-c1ccccc1OC2,,inactive: -0.727%
Cc1nc2c3ccccc3nc(NNC(=O)CCC(=O)N3CCN(c4cccc(C(F)(F)F)c4)CC3)n2n1,"inconclusive: 25.1 µM [cytotoxic, partial curve, poor fit]",
COc1ccc(C)cc1-n1nnc(C(=O)Nc2cccc(SC)c2)c1C,"inconclusive: 25.1 µM [cytotoxic, single point]",
Cc1cccc(CNC(=O)c2ccc(NC(=O)N3CCSc4ccccc43)cc2)c1,"inconclusive: 39.8 µM [cytotoxic, single point]",
COc1ccc(CNC(=O)c2cnn(-c3ccc(F)cc3)c2-n2cccc2)cc1,,inactive: -2.83%
Cc1cccc(Oc2ccc3c(c2)Oc2ccccc2NC3=O)c1,"inconclusive: 39.8 µM [cytotoxic, single point]",
CCOC(=O)N1CCc2c(sc3c2C(=O)NC(c2ccccc2F)N3)C1 (centres undefined),"inconclusive: 3.55 µM [cytotoxic, single point]",
